For the test, the target named is T1, IL-17RA-Fc (UniProt Q96F46 33-320).
T1 construct: Interleukin-17 receptor A, bought Fc fusion; source: bought: R&D Systems
The test can be described thus: ELISA; receptor-Fc coated on the plate (IL-17RA-Fc 2 ug/mL, the others 1 ug/mL in PBS); biotinylated cytokine (IL-17A 250 ng/mL; IL-17C, IL-17E, IL-17F 100 ng/mL) pre-incubated 1 h with peptide (0.128 nM to 10,000 nM), then 30 min at RT on the plate; streptavidin-HRP; percent inhibition. The following applies: both partners purified. In general terms: In an ELISA, binding on a coated surface is turned into a signal by an enzyme label.

B1: human IL-17A (#317-ILB; R&D Systems) (ligand)
chain: not shown
modifications: biotin (EZ Link NHS-Biotin), in the ELISA
notes: human Interleukin-17A, bought recombinant protein; Biotinylated for the ELISA; used without biotin in the HT-29 cell assay; also called biotinylated IL-17A; source: bought: R&D Systems
Take B1: the binding result is on record as “binds”.
